# Results from PubChem BioAssay AID488969 (Vanderbilt High Throughput Screening Facility, 2010).
# The full ranking holds about 110,000 compounds; the median of “z-score” is about -0.1, and the highest 2% start at about 2. The list shows a part of the results. The source made the active and inactive calls.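 How the source made its calls: active means z-score in the third read window above 3 or below -3; inactive means the rest.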
# Molecular target: Metabotropic glutamate receptor 8 (Rattus norvegicus) (UniProt P70579)
# Test: rat mGluR8 modulators via GIRK flux, primary screen, cell-based, thallium flux, HTS (AID 488969)
# Settings: HEK293 rat mGluR8, GIRK (G protein-gated inwardly rectifying potassium channel) thallium flux, FluoZin2; at 10 µM; stronger effect = higher value; submaximal glutamate (EC20) added with thallium
# Chain of UniProt P70579 (P70579 whole entry, looked up): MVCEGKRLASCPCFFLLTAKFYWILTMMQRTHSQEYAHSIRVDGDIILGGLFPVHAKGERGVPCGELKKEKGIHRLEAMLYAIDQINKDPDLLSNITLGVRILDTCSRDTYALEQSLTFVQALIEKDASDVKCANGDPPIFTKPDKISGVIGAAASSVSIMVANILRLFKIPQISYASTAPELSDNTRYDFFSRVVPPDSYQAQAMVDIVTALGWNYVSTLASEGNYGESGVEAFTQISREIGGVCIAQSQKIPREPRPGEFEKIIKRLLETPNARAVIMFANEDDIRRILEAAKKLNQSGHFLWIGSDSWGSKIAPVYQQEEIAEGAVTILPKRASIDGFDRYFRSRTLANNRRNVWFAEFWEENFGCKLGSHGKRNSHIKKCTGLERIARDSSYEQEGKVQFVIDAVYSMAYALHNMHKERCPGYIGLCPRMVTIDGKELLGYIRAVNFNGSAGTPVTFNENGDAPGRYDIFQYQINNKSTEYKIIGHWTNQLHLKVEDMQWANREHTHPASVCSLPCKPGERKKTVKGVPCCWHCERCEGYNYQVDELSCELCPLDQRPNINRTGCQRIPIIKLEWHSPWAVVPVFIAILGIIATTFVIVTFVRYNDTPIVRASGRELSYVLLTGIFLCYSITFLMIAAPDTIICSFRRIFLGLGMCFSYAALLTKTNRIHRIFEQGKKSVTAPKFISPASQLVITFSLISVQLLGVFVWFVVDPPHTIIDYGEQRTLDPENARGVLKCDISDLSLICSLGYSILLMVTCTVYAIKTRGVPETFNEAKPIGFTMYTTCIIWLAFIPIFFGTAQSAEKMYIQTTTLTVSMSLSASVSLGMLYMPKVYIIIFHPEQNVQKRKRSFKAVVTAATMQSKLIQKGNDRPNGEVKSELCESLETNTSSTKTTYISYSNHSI
row,Structure (SMILES),z-score
1,C=CCNC(=O)COC(=O)COc1ccc(Cl)cc1C,0.482
2,CC1=CC(=C(C#N)c2nc3ccccc3s2)C=C(C)N1c1ccc(F)cc1F,0.0247
3,O=C(NC(C(=O)N/N=C/c1c2ccccc2cc2ccccc12)c1n[nH]c(=O)c2ccccc12)c1ccccc1 (stereo not drawn),-0.183
4,CCCSC1=N/C(=C\c2ccc3c(c2)OCO3)C(=O)S1,-0.203
5,Cc1cccc(N=C2NC(=O)/C(=C\c3cccs3)S2)c1,0.692
6,O=C(Nc1cnn(Cc2ccc(Cl)cc2)c1)c1ccc([N+](=O)[O-])cc1,-1.03
7,Cc1cc(Cl)ccc1NC(=O)C1CCCN1C(=O)c1cccs1 (stereo not drawn),0.00203
8,COc1ccc(NC(=O)CSc2c(C)nn(-c3nnc(C)c(=O)[nH]3)c2C)cc1,0.603
9,CC(=O)NC(CCS(C)(=O)=O)C(=O)Nc1ccc2c(c1)OCCO2 (stereo not drawn),-0.0282
10,C=CCNC(=S)Nc1sc2c(c1C(=O)OCC)CC(C)(CC)OC2 (stereo not drawn),2.22
11,CN1CCc2nc(NC(=O)c3cccc(OC(F)F)c3)sc2C1,0.361
12,CCN(CC)CCNC(=O)Cn1cnc2sc(C)c(S(=O)(=O)N3CCOCC3)c2c1=O,0.572
13,O=C1C2C3C=CC(C3)C2C(=O)N1c1cccc(N2C(=O)C3C4C=CC(C4)C3C2=O)n1 (stereo not drawn),0.232
14,CCn1cc(C(=O)NC(C)C2CC3CCC2C3)cn1 (stereo not drawn),0.0567
15,O=C(c1ccccc1)[C@H]1[C@H](c2ccccc2)[C@@]2(N=C(c3ccccc3)OC2=O)C2c3ccccc3C=NN21 (stereo partly drawn),0.0137
16,O=C(COC(=O)CCc1nc2ccccc2s1)Nc1ncc(Cl)cc1Cl,-0.33
17,CCn1c(C)nc2cc(C(=O)NNS(=O)(=O)c3ccc(C)cc3C)ccc21,0.497
18,O=C(NCCN1CCCC1)C1COc2ccccc2O1 (stereo not drawn),-0.161
19,N=c1c2c(-c3ccccc3)c(-c3ccccc3)n(Cc3ccccc3)c2ncn1CCCO,active: 4.35
20,Cc1csc2nnc(N)n12,-0.196
21,O=C(Nc1nncs1)c1cccc(S(=O)(=O)N2CCCCC2)c1,0.145
22,COc1ccc(C(CCNCc2ccccc2F)c2ccc(F)cc2)cc1 (stereo not drawn),active: 3.61
23,CCOC(=O)c1sc(C)c2c1NC(C)(c1ccccc1)NC2=O (stereo not drawn),-0.844

row,Structure (SMILES),z-score
1,Cc1cccc(-c2noc(-c3ccc(F)cc3)n2)c1,-0.424
2,O=C(CN1CCc2ccccc21)Nc1ccc2c(c1)OCO2,1.09
3,CCc1ccc2c(c1)C(c1ccc([N+](=O)[O-])cc1)=NNC(c1ccc(C)cc1)=N2,-0.102
4,COc1ccc(CCNC(=O)c2c(C)noc2C)cc1,-0.303
5,CCC(=O)Nc1cccc(-c2cn3ccsc3n2)c1,0.036
6,COc1ccc(N2CCN(C(=O)CSc3nnc4c(C)cc5ccc(C)c(C)c5n34)CC2)cc1,0.281
7,CC12CC3CC(C)(C1)CC(C(=O)NC(=S)N1CCOCC1)(C3)C2,active: 3.1
8,COc1ccc(-c2nn(CCC(=O)O)cc2/C=C/C(=O)O)cc1[N+](=O)[O-],-0.0549
9,COc1ccc(CCNC(=S)NC(=O)/C=C/c2ccc(C)cc2)cc1OC,-0.0761
10,Cc1ccccc1C(=O)N1CCN(c2ccccn2)CC1,0.732
11,Cc1nnc(NC(=O)CSc2nc(C(C)C)nc3ccccc23)s1,-0.197
12,O=C(N/N=C/c1ccc(O)cc1)/C(=C/c1ccc([N+](=O)[O-])cc1)NC(=O)c1ccccc1,-0.461
13,CCSc1nc2cc(OC)c(OC)cc2c(=O)n1CCc1ccccc1,0.194
14,Cc1nc(SCc2cccc(Oc3ccccc3)c2)n[nH]1,0.373
15,O=C(NCCOc1nc(N2CCOCC2)nc(N2CCOCC2)n1)Nc1ccccc1,-0.0497
16,Cc1nc(SCC(=O)c2ccc(Cl)s2)c2oc3ccccc3c2n1,-0.317
17,CC(=O)Oc1ccc2c(c1)cc(C)n2C,0.458
18,c1ccc(CCc2nn3c(Cc4ccccc4)nnc3s2)cc1,-1.08
19,O=C(COCC(=O)N/N=C/c1ccccc1F)N/N=C/c1ccccc1F,-0.201
20,COc1ccccc1CNC(=O)CCc1nc2ccccc2c(=O)[nH]1,-0.227
21,O=C1c2ccccc2C(=O)N1CCOCCN1C(=O)c2ccccc2C1=O,-1.37
22,COC(=O)c1cc(OC)c(OC)cc1NC(=S)N1CCCC(CO)C1 (stereo not drawn),-0.107
23,COC(=O)c1c(C)oc2ccc(N(C(=O)Oc3ccccc3)S(=O)(=O)c3ccccc3)cc12,-0.0489

row,Structure (SMILES),z-score
1,C=CCOC(=O)C1=C(C)OC(N)=C(C#N)C1c1ccc2c(c1)OCO2 (stereo not drawn),-0.255
2,COc1ccc(NC(=O)N2CCOCC2)cc1OC,0.282
3,O=C(CSc1nnc(-c2ccco2)n1-c1ccccc1)NCc1ccc2c(c1)OCO2,-0.461
4,CC(C)OC(=O)CC12CN(C)CC(CC(=O)OC(C)C)(CN(C)C1)C2=O,0.458
5,CCCCCCC(=O)N1CCN(c2cc3c(cc2F)c(=O)c(C(=O)O)cn3CC)CC1,-0.065
6,CCOC(=O)C1CCN(C(=O)c2cc(OCC)c(OCC)c(OCC)c2)CC1,0.856
7,O=C(NCc1ccco1)c1sc(=S)n2c1[nH]c(=O)c1ccccc12,2.75
8,Cc1cc(NC(=O)COC(=O)C(Nc2ccc(C(F)(F)F)cc2Cl)C(C)C)no1 (stereo not drawn),1.68
9,Cc1ccccc1OCCNC(=O)CSc1ccc(C(F)(F)F)cc1[N+](=O)[O-],-0.304
10,CCOC(=O)C1CCN(C(=O)c2ccc(NC(=O)C3CCCO3)cc2)CC1 (stereo not drawn),-0.0783
11,CN1CCN(CC#CCC(O)(c2ccccc2)C2CCCC2)CC1 (stereo not drawn),0.354
12,CCOc1ccc2[nH]cc(S(=O)(=O)c3ccc(F)cc3)c(=O)c2c1,-0.159
13,O=C(O)c1ccc2c(c1)OCCO2,-0.253
14,CSc1nnc(COc2ccc(C)cc2)n1N,0.285
15,CCn1c(CNC(=O)C23CC4CC(CC(C4)C2)C3)nnc1SCC(=O)Nc1nnc(C)s1,-1.09
16,Cc1cccc2c1N(C(=O)c1ccco1)C(C)(C)c1ssc(=S)c1-2,-0.171
17,COc1ccc2cc3c(N)nn(C(=O)c4ccccc4[N+](=O)[O-])c3nc2c1,0.426
18,Cc1ccc2c(c1)c1c(n2CC(O)Cn2c(C)nc3ccccc32)/C(=N\O)CCC1 (stereo not drawn),-0.101
19,Cc1ccc(CNC(=O)COc2ccc(C(=O)c3ccc(F)cc3)cc2)cc1,-0.0652
20,CN1CCC(N(C)C(=O)CCc2nc3ccccc3c(=O)[nH]2)CC1,-0.206
21,O=C(COc1ccc(S(=O)(=O)NCCc2ccccc2)cc1)N1CCCC1,0.83
22,Cc1nc(SCC(=O)c2c[nH]c3ccccc23)n[nH]1,0.483
